Measurements taken from the supplement of paper PMC8728848.
Some of the results follow.

Columns and labels:
Experiment in all cases: glycan array binding signal (z-score within array); higher = stronger binding
Settings in all cases: glycan notation: IUPAC condensed, linker removed
GalNAc(b1-3)Gal = biological target: GalNAc(b1-3)Gal
Procedure, shortened: (§1)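 Arrays were curated from the Consortium for Functional Glycomics database, 3228 in total, and kept only where the protein sequence was available. Binding is expressed as a within-array Z-score. This score was averaged across arrays of the same protein sequence at different concentrations or buffers and across linkers, and negative values can be read as non-binding.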

[1] = biological target: GalNAc(b1-3)Gal(a1-4)Gal(b1-4)GlcNAc
Procedure, shortened: as §1

[2] = biological target: GalNAc(b1-3)Gal(a1-4)Gal(b1-4)GlcNAc(b1-3)Gal(b1-4)Glc
Procedure, shortened: as §1

[3] = biological target: GalNAc(b1-3)Gal(a1-6)Gal(b1-4)Glc
Procedure, shortened: as §1

GalNAc(b1-3)GalNAc = biological target: GalNAc(b1-3)GalNAc
Procedure, shortened: as §1

GalNAc(b1-3)GlcNAc = biological target: GalNAc(b1-3)GlcNAc
Procedure, shortened: as §1

GalNAc(b1-4)Gal(b1-4)Glc = biological target: GalNAc(b1-4)Gal(b1-4)Glc
Procedure, shortened: as §1

GalNAc(b1-4)GlcNAc = biological target: GalNAc(b1-4)GlcNAc
Procedure, shortened: as §1

[4] = biological target: GalNAc(b1-4)GlcNAc(b1-2)Man
Procedure, shortened: as §1

[5] = biological target: GalNAc(b1-4)GlcNAc(b1-2)Man(a1-3)[GalNAc(b1-4)GlcNAc(b1-2)Man(a1-6)]Man(b1-4)GlcNAc(b1-4)GlcNAc
Procedure, shortened: as §1

[6] = biological target: GalNAc(b1-4)GlcNAc(b1-3)GalNAc(b1-4)GlcNAc
Procedure, shortened: as §1

GalNAc(b1-4)GlcNAc6S = biological target: GalNAc(b1-4)GlcNAc6S
Procedure, shortened: as §1

GalNAc(b1-6)GalNAc = biological target: GalNAc(b1-6)GalNAc
Procedure, shortened: as §1

GalNAc3S(b1-4)GlcNAc = biological target: GalNAc3S(b1-4)GlcNAc
Procedure, shortened: as §1

GalNAc3S(b1-4)GlcNAc3S = biological target: GalNAc3S(b1-4)GlcNAc3S
Procedure, shortened: as §1

[7] = biological target: GalNAc3S(b1-4)[Fuc(a1-3)]GlcNAc
Procedure, shortened: as §1

GalNAc4S6S(b1-4)GlcNAc = biological target: GalNAc4S6S(b1-4)GlcNAc
Procedure, shortened: as §1

GalNAc6S(b1-4)GlcNAc = biological target: GalNAc6S(b1-4)GlcNAc
Procedure, shortened: as §1

Glc(a1-4)Glc = biological target: Glc(a1-4)Glc
Procedure, shortened: as §1

[8] = biological target: Glc(a1-4)Glc(a1-4)Glc(a1-4)Glc
Procedure, shortened: as §1

Glc(a1-6)Glc(a1-6)Glc = biological target: Glc(a1-6)Glc(a1-6)Glc
Procedure, shortened: as §1

[9] = biological target: Glc(a1-6)Glc(a1-6)Glc(a1-6)Glc
Procedure, shortened: as §1

Glc(b1-4)Glc = biological target: Glc(b1-4)Glc
Procedure, shortened: as §1

Glc(b1-6)Glc = biological target: Glc(b1-6)Glc
Procedure, shortened: as §1

GlcA(b1-3)Gal = biological target: GlcA(b1-3)Gal
Procedure, shortened: as §1

GlcA(b1-3)GlcNAc = biological target: GlcA(b1-3)GlcNAc
Procedure, shortened: as §1

GlcA(b1-6)Gal = biological target: GlcA(b1-6)Gal
Procedure, shortened: as §1

[10] = biological target: GlcA3S(b1-3)Gal(b1-4)GlcNAc(b1-2)Man
Procedure, shortened: as §1

[11] = biological target: GlcA3S(b1-3)Gal(b1-4)GlcNAc(b1-3)Gal(b1-4)Glc
Procedure, shortened: as §1

[12] = biological target: GlcNAc(a1-3)Gal(b1-4)GlcNAc
Procedure, shortened: as §1

[13] = biological target: GlcNAc(a1-4)Gal(b1-3)GlcNAc
Procedure, shortened: as §1

[14] = biological target: GlcNAc(a1-4)Gal(b1-4)GalNAc
Procedure, shortened: as §1

[15] = biological target: GlcNAc(a1-4)Gal(b1-4)GlcNAc
Procedure, shortened: as §1

[16] = biological target: GlcNAc(a1-4)Gal(b1-4)GlcNAc(b1-3)Gal(b1-4)Glc
Procedure, shortened: as §1

[17] = biological target: GlcNAc(a1-4)Gal(b1-4)GlcNAc(b1-3)Gal(b1-4)GlcNAc
Procedure, shortened: as §1

[18] = biological target: GlcNAc(a1-4)Gal(b1-4)GlcNAc(b1-3)Gal(b1-4)GlcNAc(b1-3)Gal(b1-4)GlcNAc
Procedure, shortened: as §1

[19] = biological target: GlcNAc(a1-4)Gal(b1-4)GlcNAc(b1-3)Gal(b1-4)[Fuc(a1-3)]GlcNAc(b1-3)Gal(b1-4)[Fuc(a1-3)]GlcNAc
Procedure, shortened: as §1

[20] = biological target: GlcNAc(a1-6)Gal(b1-4)GlcNAc
Procedure, shortened: as §1

B1: mCC1-Hexahis-Precomplexed (Mus musculus), P31809 (protein)
chain: MELASAHLHKGQVPWGGLLLTASLLASWSPATTAEVTIEAVPPQVAEDNNVLLLVHNLPLALGAFAWYKGNTTAIDKEIARFVPNSNMNFTGQAYSGREIIYSNGSLLFQMITMKDMGVYTLDMTDENYRRTQATVRFHVHPILLKPNITSNNSNPVEGDDSVSLTCDSYTDPDNINYLWSRNGESLSEGDRLKLSEGNRTLTLLNVTRNDTGPYVCETRNPVSVNRSDPFSLNIIYGPDTPIISPSDIYLHPGSNLNLSCHAASNPPAQYFWLINEKPHASSQELFIPNITTNNSGTYTCFVNNSVTGLSRTTVKNITVLEPVTQPFLQVTNTTVKELDSVTLTCLSNDIGANIQWLFNSQSLQLTERMTLSQNNSILRIDPIKREDAGEYQCEISNPVSVRRSNSIKLDIIFDPTQGGLSDGHHHHHH
glycan array binding signal (z-score) (GalNAc(b1-3)Gal): -0.208
glycan array binding signal (z-score) [1]: -0.194
glycan array binding signal (z-score) [2]: -0.269
glycan array binding signal (z-score) [3]: -0.095
glycan array binding signal (z-score) (GalNAc(b1-3)GalNAc): -0.247
glycan array binding signal (z-score) (GalNAc(b1-3)GlcNAc): -0.3
glycan array binding signal (z-score) (GalNAc(b1-4)Gal(b1-4)Glc): 0.008
glycan array binding signal (z-score) (GalNAc(b1-4)GlcNAc): -0.264
glycan array binding signal (z-score) [4]: -0.241
glycan array binding signal (z-score) [5]: 0.224
glycan array binding signal (z-score) [6]: -0.295
glycan array binding signal (z-score) (GalNAc(b1-4)GlcNAc6S): -0.282
glycan array binding signal (z-score) (GalNAc(b1-6)GalNAc): -0.226
glycan array binding signal (z-score) (GalNAc3S(b1-4)GlcNAc): -0.254
glycan array binding signal (z-score) (GalNAc3S(b1-4)GlcNAc3S): -0.065
glycan array binding signal (z-score) [7]: -0.25
glycan array binding signal (z-score) (GalNAc4S6S(b1-4)GlcNAc): -0.07
glycan array binding signal (z-score) (GalNAc6S(b1-4)GlcNAc): -0.292
glycan array binding signal (z-score) (Glc(a1-4)Glc): -0.185
glycan array binding signal (z-score) [8]: 0
glycan array binding signal (z-score) (Glc(a1-6)Glc(a1-6)Glc): -0.192
glycan array binding signal (z-score) [9]: -0.077
glycan array binding signal (z-score) (Glc(b1-4)Glc): -0.182
glycan array binding signal (z-score) (Glc(b1-6)Glc): -0.254
glycan array binding signal (z-score) (GlcA(b1-3)Gal): -0.174
glycan array binding signal (z-score) (GlcA(b1-3)GlcNAc): -0.289
glycan array binding signal (z-score) (GlcA(b1-6)Gal): -0.12
glycan array binding signal (z-score) [10]: -0.001
glycan array binding signal (z-score) [11]: -0.235
glycan array binding signal (z-score) [12]: -0.183
glycan array binding signal (z-score) [13]: -0.139
glycan array binding signal (z-score) [14]: -0.219
glycan array binding signal (z-score) [15]: -0.091
glycan array binding signal (z-score) [16]: -0.173
glycan array binding signal (z-score) [17]: -0.231
glycan array binding signal (z-score) [18]: -0.225
glycan array binding signal (z-score) [19]: -0.119
glycan array binding signal (z-score) [20]: -0.279
